{
  "source": "paper PMC12136788",
  "binders": {"B1": {"name": "chr15:77046258:77046342:-|3pUTR|ENSG00000140391|msi1_unk|FALSE|overlapping (ssRNA)", "RNA": "GGGAGUUCUACAGUCCGACGAUCAAAAAUAUUUACUGUAGUCCAAUAAGAUAGCAGCUGUACAAAAUGACUAAAAUAGAUUGUAGGAUCAUAUGGCGUAUAUCUUGGUUCAUCUUCAAAAUCAGAGACUGAGCUUUGAAACUACAACAGAGGAUUGAGCAUCA"}, "B2": {"name": "chr19:46720021:46720126:-|3pUTR|ENSG00000090372|unk|total|mutant (ssRNA)", "RNA": "GGGAGUUCUACAGUCCGACGAUCGCCGCUCCUGGUAUCAGAGCUGCUUUCCAGAGGGCAGCACAGCCAGGGCCGGGUGUCUUCCGGGAUCAGUUUUUCCAAGACUCCAGAAGGUGCCAGGUUCUCCCCUUGAGCUCCUGCUCCCAACAGAGGAUUGAGCAUCA"}, "B3": {"name": "chr3:127036549:127036650:+|3pUTR|ENSG00000114554|msi1|FALSE|unique (ssRNA)", "RNA": "GGGAGUUCUACAGUCCGACGAUCGUCUACUGGGACAGCAGUCUCCGAGCUACUCCGUACCUCCCUCUGCCAGGUCGUGGAGUUAGGCCCCAGUCCCUACUUGUCACUGGUUCCCACUGUGCUCCUAACUGUGCAGCACCUGGGCAACAGAGGAUUGAGCAUCA"}, "B4": {"name": "chr14:92003418:92006448:-|CDS|ENSG00000100815|control|control|control (ssRNA)", "RNA": "GGGAGUUCUACAGUCCGACGAUCGGAGAGAAUAUUAAUUCUAGAGAUGGACAUUGGCAAACUAAAAGGAGAAAAUGAAAAAAUAGUGGAAACAUACAGGGGAAAGGAAACAGAAUAUCAAGCGUUACAAGAGACUAACAUGAACAACAGAGGAUUGAGCAUCA"}, "B5": {"name": "chr20:7981316:7981417:-|3pUTR|ENSG00000125827|unk|total|mutant (ssRNA)", "RNA": "GGGAGUUCUACAGUCCGACGAUCUAAGUUUUCUAAGCAAUAUUUUUCAAGCCAGAAGUCCUCUAAGUCUUGCCAGUACAAGGCCGUCUUGUGAAGAAAAGUUGAAUACUGUUUUGUUUUCAUCUCAAGGGGUUCCCUGGGUCUCAACAGAGGAUUGAGCAUCA"}, "B6": {"name": "chr17:744420:744865:-|three_prime_utr|ENSG00000179409|control|control|control (ssRNA)", "RNA": "GGGAGUUCUACAGUCCGACGAUCAUCAGCAGCUUCUUACCUGUGCGGGAGCGAAAAAGCUGGGCUUCAACAUGGCAGGUCUGUAGGGGUCAGACCCGAGCAGCCUGGACUUUACAGUUAUGUGAAACUGUCCACAAAAAGUCACAACAGAGGAUUGAGCAUCA"}, "B7": {"name": "chrX:65741840:65741941:+|3pUTR|ENSG00000147065|msi1|FALSE|unique (ssRNA)", "RNA": "GGGAGUUCUACAGUCCGACGAUCAAAUUGUUUUUGGAGGGGUUUAUGCUCAAUCCAUGUUCUAUUUCAGUGCCAAUAAAAUUUAGGAAGACUUCACAGUGACUCAAUCGUUCUUUGUGGUAUGAGUGGGUAGCUGUAAGAUAUCAACAGAGGAUUGAGCAUCA"}, "B8": {"name": "ENSG00000198589:be:win_8201|CDS|ENSG00000198589|bound_else_gene|NA|bound_elsewhere_windowed (ssRNA)", "RNA": "GGGAGUUCUACAGUCCGACGAUCUCAUUCAGGCUUCAAGAGAGGGUCAUUGUGUCAUAUUCUAUGAAAACGGCCUCUUCUGUACAUUCAGUGUGAAUGGAAAACUCCAGGCCACGAUGGAAACAGAUGAUAACAUAAGAGCCACAACAGAGGAUUGAGCAUCA"}, "B9": {"name": "chr1:217137657:217137758:-|5pUTR|ENSG00000196482|msi1|total|mutant (ssRNA)", "RNA": "GGGAGUUCUACAGUCCGACGAUCCGGGCUCCAGGCCGGGCUCCCUAAACGGGUCAGCAAUUGGAGCGGGAAGGCCGGACAGGCCGGUGGCGUGGGGCGCACAAGCCCGGCAGCGAUAACCGGGGACGUCUGUACUGCUUCCAACAACAGAGGAUUGAGCAUCA"}, "B10": {"name": "ENSG00000035403:stop:overlap|stop_codon|ENSG00000035403|stop_codon|NA|stop_codon (ssRNA)", "RNA": "GGGAGUUCUACAGUCCGACGAUCAAAUUCGAACAGAUGCUGGAUUUACACUGCGCUGGGUUAGAAAGACUCCCUGGUACCAGUAGGCACCUGGCUGAGCCUGGCUGGCACAGAAACCUCUACUAAAAAGAAGGAAAAUGAUCUCAACAGAGGAUUGAGCAUCA"}, "B11": {"name": "chr7:65954205:65954306:+|CDS_3pUTR|ENSG00000196715|msi1_unk|total|mutant (ssRNA)", "RNA": "GGGAGUUCUACAGUCCGACGAUCCAUCUGCAUCGUCACGUACGUGCUGAACUUCCUUCUUCUCAUUAUCAACUACAAACGACCCGUUUACUUGAACGAGGCCUGGAAGCGGCAGCUGCAACCCAAGCAGGACUGACGCCCGACCAACAGAGGAUUGAGCAUCA"}, "B12": {"name": "chr5:10679541:10679642:-|3pUTR|ENSG00000112977|msi1|FALSE|unique (ssRNA)", "RNA": "GGGAGUUCUACAGUCCGACGAUCCUUCAAGGCCCUGUCACCACCUAUUUCCUGAUCAGUUGGUAUAAACUGAGGGUGGCUUUUAGAGACCCAGACUUGGUUGGCAGCGCUGCCAUGGAACACCCCAGCAAGCACCUCCCAGCCCAACAGAGGAUUGAGCAUCA"}, "B13": {"name": "chr12:4445224:4445570:-|CDS|ENSG00000111241|control|control|control (ssRNA)", "RNA": "GGGAGUUCUACAGUCCGACGAUCCAACACGCUGCUGGACUCGAGGGGCUGGGGCACCCUGCUGUCCAGGUCUCGCGCCGGGCUAGCUGGAGAGAUUGCCGGGGUGAACUGGGAAAGUGGCUAUUUGGUGGGGAUCAAGCGGCACAACAGAGGAUUGAGCAUCA"}, "B14": {"name": "chr11:28036422:28036524:-|CDS|ENSG00000121621|unk|FALSE|unique (ssRNA)", "RNA": "GGGAGUUCUACAGUCCGACGAUCCAGCUCAAUGAUUCUCUUAGCAAAGAACUUCAGCCUAUUGUAUAUACACCAGAAGACUGUAGAAAAGCUUUUCAAAAUCCGUCUACAGUAACCUUAAUGAAACCAUCAUCAUUUACUACACAACAGAGGAUUGAGCAUCA"}, "B15": {"name": "chr10:97759570:97759671:+|3pUTR|ENSG00000155256|msi1|total|mutant (ssRNA)", "RNA": "GGGAGUUCUACAGUCCGACGAUCGACUGAGCGAGUGGACUCCGGGCUGGGCAGGCAGCCGCCACCAGAGGGCAGCAGCGAACCCGGCCAGGCCUGACUGGGGUCUGAAGAUCAGGGUCAGUGUGGCUGUGCCUGGGAAUUCCACAACAGAGGAUUGAGCAUCA"}, "B16": {"name": "chr22:28629602:28629705:-|CDS|ENSG00000100154|unk|FALSE|unique (ssRNA)", "RNA": "GGGAGUUCUACAGUCCGACGAUCAUUGUUCUGUAUAAUGAAGCCCUGGCUGUUGACCCUCAGAACUGCAUCUUAUACAGCAAUAGAUCUGCAGCCUACAUGAAAAUCCAGCAGUAUGACAAGGCACUGGAUGAUGCAAUCAAACAACAGAGGAUUGAGCAUCA"}, "B17": {"name": "chr17:44352837:44352938:+|3pUTR|ENSG00000030582|unk|FALSE|unique (ssRNA)", "RNA": "GGGAGUUCUACAGUCCGACGAUCCUGAAGACUCUGCAGCCCUCGGGACCCCACUCGGAGGGUGCCCUCUGCUCAGGCCUCCCUAGCACCUCCCCCUAACCAAAUUCUCCCUGGACCCCAUUCUGAGCUCCCCAUCACCAUGGGCAACAGAGGAUUGAGCAUCA"}, "B18": {"name": "chr6:113953301:113953428:-|CDS|ENSG00000196591|unk|total|mutant (ssRNA)", "RNA": "GGGAGUUCUACAGUCCGACGAUCAAAAACCAAAACUUAUGGAUUUGUUUUCAGGUAUCAUCAGAGAGUCUUAUAUAUUGAUACCGAUAUUCAUCAUGGUGAUGGUGUUGAAGAAGCUUUUUAUACAACAGAUCGUGUAAUGACCAACAGAGGAUUGAGCAUCA"}, "B19": {"name": "chr13:45957189:45957298:-|CDS|ENSG00000123200|unk|FALSE|unique (ssRNA)", "RNA": "GGGAGUUCUACAGUCCGACGAUCUGUUUUUGUUUUCUUCAAAUAGGGCACCAUAAAACAAGCUUACACGAGUGCUCCAAUGGUAGACAAUGAAUUACUUCGAUUGAGUCUUCGGUUAUUUAAGCGGAAGACUACUUGCCAUGCCAACAGAGGAUUGAGCAUCA"}, "B20": {"name": "chr5:138184526:138184629:+|CDS|ENSG00000112984|unk|FALSE|unique (ssRNA)", "RNA": "GGGAGUUCUACAGUCCGACGAUCGUGCAUGCCCCACCUAUGCAACUGGGAUUCCCAUCCCUGCACUCGUUCAUCAAGGAACAUAGUCUUCAGGUAUCCCCCAGCUUAGAGAAAGGGGCUAAGGCAGACACAGGCCUUGAUGAUCAACAGAGGAUUGAGCAUCA"}, "B21": {"name": "ENSG00000093010:stop:overlap|stop_codon|ENSG00000093010|stop_codon|NA|stop_codon (ssRNA)", "RNA": "GGGAGUUCUACAGUCCGACGAUCGCUGCUGCCCAGAGCCCAUUCAGUCAGCCUCAGCCUCUCCAAAGAGCCAGGCAUUCCAGUAGAGCCCUGUGUGGACACAGCUCGCUCUGGAGGCACCACCUGAGGUCUGGGAGUGUGGGGCAACAGAGGAUUGAGCAUCA"}, "B22": {"name": "chr1:150648406:150648517:-|CDS|ENSG00000143457|unk|FALSE|unique (ssRNA)", "RNA": "GGGAGUUCUACAGUCCGACGAUCUCAGCGUAUGGACAAGCGAACACUAGCACUCCUGGUGCUAGCCCACUCCUCUGAUGUGCUAGAGAAUGUCUUCUCCUCUCUGACAGAUGACAAGUAUGAUGUGGCAAUGAAUCGAGCCAACAACAGAGGAUUGAGCAUCA"}},
  "note": "This is one part of the list.",
  "data": [
    {"target": "T1, UNK ZnF1-6 (called full-length) (human, UniProt Q9C0B0 30-357)", "T1 sequence": "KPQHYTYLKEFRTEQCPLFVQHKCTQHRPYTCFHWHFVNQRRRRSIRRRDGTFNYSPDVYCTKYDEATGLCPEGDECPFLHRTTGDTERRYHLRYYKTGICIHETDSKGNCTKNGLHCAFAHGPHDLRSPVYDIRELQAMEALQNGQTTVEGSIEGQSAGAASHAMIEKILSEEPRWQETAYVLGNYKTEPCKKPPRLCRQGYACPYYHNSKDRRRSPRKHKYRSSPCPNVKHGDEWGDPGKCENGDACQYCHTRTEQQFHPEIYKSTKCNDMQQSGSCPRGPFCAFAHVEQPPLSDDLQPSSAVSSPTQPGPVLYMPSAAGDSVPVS", "assay": "nsRBNS (natural sequence RNA bind-n-seq); RBNS binding buffer (assumed for nsRBNS): 25 mM Tris pH 7.5, 150 mM KCl, 3 mM MgCl2, 0.01% Triton X-100, 500 ug/ml BSA, 20 U/ml SUPERase-In, 4 C; UNK is unkempt and MSI1 is Musashi-1; names of the RNAs are library labels; protein concentration not given here; high values mean tight binding", "units": {"binding signal": "enrichment R"}, "values": [
      {"binder": "B1", "binding signal": 0.801},
      {"binder": "B2", "binding signal": 0.705},
      {"binder": "B3", "binding signal": 0.733},
      {"binder": "B4", "binding signal": 0.554},
      {"binder": "B5", "binding signal": 0.53},
      {"binder": "B6", "binding signal": 0.542},
      {"binder": "B7", "binding signal": 0.698},
      {"binder": "B8", "binding signal": 0.445},
      {"binder": "B9", "binding signal": 0.948},
      {"binder": "B10", "binding signal": 1.24},
      {"binder": "B11", "binding signal": 0.769},
      {"binder": "B12", "binding signal": 0.934},
      {"binder": "B13", "binding signal": 1.04},
      {"binder": "B14", "binding signal": 0.627},
      {"binder": "B15", "binding signal": 0.476},
      {"binder": "B16", "binding signal": 0.451},
      {"binder": "B17", "binding signal": 0.792},
      {"binder": "B18", "binding signal": 0.597},
      {"binder": "B19", "binding signal": 0.249},
      {"binder": "B20", "binding signal": 0.529},
      {"binder": "B21", "binding signal": 0.77},
      {"binder": "B22", "binding signal": 0.467}
    ]}
  ]
}
